This is one part of the list.

The values that follow come from a collection of fitness landscapes (doi:10.1126/science.1257360).

To fix the notation:
B1: PhoQ; a variant is named by its letters at X, in order, P23837 (parent)
chain: MKKLLRLFFPLSLRVRFLLATAAVVLVLSLAYGMVALIGYSVSFDKTTFRLLRGESNLFYTLAKWENNKLHVELPENIDKQSPTMTLIYDENGQLLWAQRDVPWLMKMIQPDWLKSNGFHEIEADVNDTSLLLSGDHSIQQQLQEVREDDDDAEMTHSVAVNVYPATSRMPKLTIVVVDTIPVELKSSYMVWSWFIYVLSANLLLVIPLLWVAAWWSLRPIEALAKEVRELEEHNRELLNPATTRELTSLVRNLNRLLKSERERYDKYRTTLTDLTHSLKTPLXXLQXXLRSLRSEKMSVSDAEPVMLEQISRISQQIGYYLHRASMRGGTLLSRELHPVAPLLDNLTSALNKVYQRKGVNISLDISPEISFVGEQNDFVEVMGNVLDNACKYCLEFVEISARQTDEHLYIVVEDDGPGIPLSKREVIFDRGQRVDTLRPGQGVGLAVAREITEQYEGKIVAGESMLGGARMEVIFGRQHSAPKDE

This assay covers variants of B1. As to the kind of experiment: enrichment ratio after two sorts for PhoP signalling (ratio (wild type AVST 3.29)); higher = more functional. The following applies: with PhoP (E. coli).
As for LPVH, the enrichment ratio is no more than 0.25.

As to KKTH, the enrichment ratio was no more than 0.25.

As for PQRW, the enrichment ratio is no more than 0.25.

On to FCDC, for which the enrichment ratio is no more than 0.25.

For PTTT, the enrichment ratio was no more than 0.25.

With LQLQ, the enrichment ratio is no more than 0.25.

EIDL: the enrichment ratio was no more than 0.25.

In the case of KAVW, the enrichment ratio was no more than 0.25.

As for INWE, the enrichment ratio is no more than 0.25.

In the case of YHDY, the enrichment ratio was no more than 0.25.

For MNRT, the enrichment ratio was no more than 0.25.

In the case of WFPH, the enrichment ratio was no more than 0.25.

Take GSQE: the enrichment ratio is no more than 0.25.

For HINH, the enrichment ratio is no more than 0.25.

For MVHG, the enrichment ratio was no more than 0.25.

With QHHD, the enrichment ratio is no more than 0.25.

Take FHHE: the enrichment ratio was no more than 0.25.

Turning to LNFK, the enrichment ratio was no more than 0.25.

Take ARLC: the enrichment ratio was no more than 0.25.

With CSLG, the enrichment ratio was no more than 0.25.

Regarding QSFS, the enrichment ratio came to 2.3.

Consider STGT, for which the enrichment ratio turned out to be 1.71.

As for AGRW, the enrichment ratio was no more than 0.25.

Turning to FNQK, the enrichment ratio is no more than 0.25.

As for GTFP, the enrichment ratio is no more than 0.25.

Regarding MGVF, the enrichment ratio was no more than 0.25.

As to NITP, the enrichment ratio was no more than 0.25.

Take MQMV: the enrichment ratio is no more than 0.25.

Consider TSII, for which the enrichment ratio came out at 0.614.

In the case of LKIY, the enrichment ratio was no more than 0.25.

ALHR: the enrichment ratio is no more than 0.25.

Turning to NSMA, the enrichment ratio is no more than 0.25.

In the case of HKAW, the enrichment ratio is no more than 0.25.

Take GTTC: the enrichment ratio is no more than 0.25.

On to NTLR, for which the enrichment ratio is no more than 0.25.

Turning to FLLM, the enrichment ratio stood at 4.04.

As to NPGL, the enrichment ratio is no more than 0.25.

Turning to SDPS, the enrichment ratio was no more than 0.25.

On to LCKF, for which the enrichment ratio is no more than 0.25.

As to QTSW, the enrichment ratio is no more than 0.25.

Take ALWM: the enrichment ratio is no more than 0.25.

With ATLW, the enrichment ratio was 7.72.

Consider FTTP, for which the enrichment ratio is no more than 0.25.

Turning to TKHM, the enrichment ratio is no more than 0.25.

As to RCCT, the enrichment ratio is no more than 0.25.

Take MTSK: the enrichment ratio was no more than 0.25.

For QMIG, the enrichment ratio was no more than 0.25.

Consider TFRK, for which the enrichment ratio was no more than 0.25.

As to QHLL, the enrichment ratio is no more than 0.25.

Regarding VQSW, the enrichment ratio is no more than 0.25.

Consider HSNP, for which the enrichment ratio was no more than 0.25.

Regarding NFEQ, the enrichment ratio is no more than 0.25.

With ETSY, the enrichment ratio was no more than 0.25.

With MHAW, the enrichment ratio is no more than 0.25.

As for LKFS, the enrichment ratio was no more than 0.25.

With LYFK, the enrichment ratio is no more than 0.25.

RIMC: the enrichment ratio is no more than 0.25.

Turning to NWMY, the enrichment ratio was 3.07.

For HCLH, the enrichment ratio is no more than 0.25.

As to EFQM, the enrichment ratio was no more than 0.25.

With PEWG, the enrichment ratio was no more than 0.25.

For NWTN, the enrichment ratio was no more than 0.25.

As for SRNQ, the enrichment ratio was no more than 0.25.

For the variant VLPS, the enrichment ratio is no more than 0.25.

On to IDWY, for which the enrichment ratio is no more than 0.25.

Take PKMQ: the enrichment ratio is no more than 0.25.

For the variant PDRS, the enrichment ratio was no more than 0.25.

Consider PQAM, for which the enrichment ratio was no more than 0.25.

As for SVYP, the enrichment ratio was no more than 0.25.

Take KCMR: the enrichment ratio is no more than 0.25.

PDGD: the enrichment ratio was no more than 0.25.

For RCRH, the enrichment ratio was 0.996.

For the variant DMRP, the enrichment ratio is no more than 0.25.

Consider KYAI, for which the enrichment ratio was no more than 0.25.

Regarding IFHV, the enrichment ratio was no more than 0.25.

Regarding EQSD, the enrichment ratio is no more than 0.25.

Take YVAD: the enrichment ratio was no more than 0.25.

Turning to IAVM, the enrichment ratio is no more than 0.25.

Turning to AMDK, the enrichment ratio was no more than 0.25.

For the variant PYGC, the enrichment ratio is no more than 0.25.

Regarding YQMC, the enrichment ratio was no more than 0.25.

Take FFKR: the enrichment ratio is no more than 0.25.

Regarding TARL, the enrichment ratio is no more than 0.25.

On to VLAW, for which the enrichment ratio is no more than 0.25.
